# Measured values: PubChem BioAssay AID686978 (National Center for Advancing Translational Sciences (NCATS), 2013)
# The campaign covered roughly 420,000 compounds. About 64,000 (15%) were called active. The shares of active, inactive and inconclusive entries below differ from those in the screen. The call rests on the fitted dose curve; in most records, active means well fitted inhibition curve with a large enough effect; inconclusive means small, poorly fitted or top-dose-only effect; inactive means flat fitted curve, though single readings scatter. Potencies of inconclusive entries are left out as doubtful fits.
# Assay: qHTS for Inhibitors of human tyrosyl-DNA phosphodiesterase 1 (TDP1): qHTS in cells in absence of CPT; further: nearly all actives have a fitted effect of over 55% in size
# Details: DT40 Tdp1-/- hTDP1 cells, no CPT, ATP luminescence, 48 h; activity change, negative = growth inhibition: at 46.2 µM (top of the series)
# Method in brief: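 DT40 Tdp1-/-;hTDP1 cells, no CPT (DMSO vehicle only), 400 cells/well; compounds pin-transferred; ≥48 hr, 37 °C; CellTiter-Glo 30 min RT dark, luminescence read.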
# On the % scale 0 is the no-effect control and ±100 the full control effect; potency means the concentration at half of the fitted maximal effect; tags describe the fitted curve by direction and shape.
Compound,Potency,"activity change, negative = growth inhibition"
COc1ccc(CNC(=O)C2CCCN(S(=O)(=O)c3ccc4c(c3)C(C)(C)C(=O)N4C)C2)cc1 (centres undefined),"inconclusive [inhibitor, single point]",–
Cc1cc(C)nc(NNC(=O)c2ccccc2O)n1,"inconclusive [inhibitor, single point]",–
N#Cc1ccccc1NC(=O)c1ccc(-c2ccccc2Cl)o1,"inconclusive [inhibitor, single point]",–
CN(C(=O)COc1ccc([N+](=O)[O-])cc1)C1CCS(=O)(=O)C1 (centres undefined),inactive,–
FC(F)(F)c1ccc(/C=N/NC(=S)NC2CCCCC2)cc1,active: 5.8 µM,–
Cc1ccc(-c2cc3c(N4CCN(c5cc(C)ccc5C)CC4)nccn3n2)cc1,active: 20.6 µM,–
O=C(NCCCc1ccccc1)c1cccc(NC(=O)C2CCCCC2)c1,"inconclusive [inhibitor, partial curve, poor fit]",–
COC(=O)c1sc2nc(C)cc(-c3ccccc3)c2c1N,"inconclusive [inhibitor, single point]",–
CCOc1ccc(S(=O)(=O)NCCC(=O)N2CC(C)CC(C)C2)cc1 (centres undefined),"inconclusive [inhibitor, partial curve]",–
CN(C(=O)c1ccc(COc2ccccc2Br)o1)c1ccccc1,inactive,–
COc1ccc(-c2nnc(SCC(=O)Nc3cccc(Cl)c3C)nc2-c2ccc(OC)cc2)cc1,active: 10.3 µM,–
CN1CCN(C(CNC(=O)Nc2ccc(Cl)cc2)c2ccc(F)cc2)CC1 (centres undefined),"inconclusive [inhibitor, single point]",–
COc1cc(-c2nnc3sc(-c4ccco4)nn23)cc(OC)c1OC,"inconclusive [inhibitor, partial curve]",–
Cc1nc(Cl)c(C(=O)NC(=O)NCc2ccccc2)c(C)c1Cl,inactive,–
Cc1ccc(C2CC(=O)NC(SCc3ccccc3)=C2C#N)o1 (centres undefined),"inconclusive [inhibitor, single point]",–
CCn1nc(C(=O)NNC(=O)c2cc(Cl)ccc2OC)c2ccccc2c1=O,"inconclusive [inhibitor, single point]",–
Cc1ccc(NC(=S)N(C)C(c2ccccc2)c2ccccc2)cc1C,active: 23.1 µM,–
Cc1cc(C)n(-c2nc(C)c(C)c(=O)n2CC(=O)Nc2ccc(Cl)c(Cl)c2)n1,active: 7.31 µM,–
OCCC1CN(Cc2cccc(O)c2)CCN1CCc1ccccc1 (centres undefined),inactive,–
Cc1ccc(CNc2ncnc3c2cnn3-c2ccc(C)cc2C)cc1,"inconclusive [inhibitor, single point]",–
CC(=O)Nc1ccc(NC(=O)c2c(C)nn(-c3ccccc3)c2-n2cccc2)cc1,"inconclusive [inhibitor, single point]",–
CN(Cc1ccccc1)C(=O)CC(c1ccccc1)c1cc(Cl)ccc1O (centres undefined),active: 20.6 µM,–
COc1ccc(C(c2nnnn2Cc2cccs2)N2CCC(C(N)=O)CC2)c(OC)c1 (centres undefined),inactive,–
CC(=O)Nc1ccc(S(=O)(=O)Nc2cc(C)cn(Cc3ccc(C)cc3)c2=O)cc1,active: 11.6 µM,–
CCC1=Nc2cc(C(=O)NCCCOC(C)C)ccc2Sc2ccccc21,"inconclusive [inhibitor, single point]",–

Compound,Potency,"activity change, negative = growth inhibition"
O=C1C2CCc3ccccc3C2N1c1ccccc1 (centres undefined),"inconclusive [inhibitor, single point]",–
Cn1c(=NC(=O)CS(=O)(=O)c2ccccc2)sc2cc(F)ccc21,"inconclusive [inhibitor, single point]",–
CCSc1oc(-c2ccco2)nc1S(=O)(=O)c1ccc(F)cc1,"inconclusive [inhibitor, partial curve]",–
O=C(COc1ccc(Cl)cc1)NCc1n[nH]c(=O)c2ccccc12,inactive,–
COc1ccc(-c2cc(OC(=O)c3cccc(C)c3)c3c(C)oc(C)c3c(=O)c2)cc1,"inconclusive [inhibitor, single point]",–
Cc1ccc(S(=O)(=O)N2CCN(c3nc(-c4cccs4)nc4cccnc34)CC2)cc1,"inconclusive [inhibitor, single point]",–
O=C(COC(=O)c1cnc(Cl)c(Cl)c1)NCc1ccco1,inactive,–
COc1ccccc1NS(=O)(=O)c1cc(NC(=O)c2cc[n+]([O-])cc2)ccc1N1CCCC1,"inconclusive [inhibitor, partial curve]",–
CC(=O)Nc1cccc(-c2cnc3ccccc3n2)c1,inactive,–
CCOC(=O)C1=C(C)N(C[C@@H]2CC[C@@H](Cc3ccc(-c4ccccc4)cc3)O2)C(=O)NC1c1ccc([N+](=O)[O-])cc1 (some centres undefined),"inconclusive [inhibitor, single point]",–
COc1ccccc1C(c1nnnn1C(C)(C)C)N1CCN(Cc2ccccc2)CC1 (centres undefined),"inconclusive [inhibitor, single point]",–
Cc1ccc(-c2noc(CCC(=O)N(C)c3ccccc3C)n2)cc1,active: 14.6 µM,–
Cc1ccc(CNC(=O)c2cnccn2)cc1,inactive,–
Cc1cc(OCCOc2cccc3cccnc23)c(C)cc1Cl,"inconclusive [inhibitor, partial curve, poor fit]",–
CN(Cc1ccccc1)CC(O)COc1ccc(CNCCCOc2cccnc2)cc1 (centres undefined),"inconclusive [inhibitor, single point]",–
CC(=O)Nc1ccc(C(=O)c2ccccc2)cc1,"inconclusive [inhibitor, single point]",–
O=C(O)C1=C[C@@H](c2csc3ccccc23)C[C@@H](OCc2ccc(CO)cc2)O1,inactive,–
CCOC(=O)N1CCN(C(=O)C[C@@H]2C[C@@]3(C(=O)OC)CC(C)(C)CC=C3N(Cc3ccco3)C2=O)CC1,active: 18.4 µM,–
CC(=O)NC1CCN(C(=O)N2CCCC2)CC1,inactive,–
CCOC(=O)c1cc(-c2ccccc2)n(CCCC(=O)Nc2ccc(C)cc2Cl)c1C,"inconclusive [inhibitor, partial curve, poor fit]",–
CC(C)COc1ccc(C(=O)OCCN2CCOCC2)c(O)c1,–,inconclusive: -36.8% [inhibitor]
COCC(C)n1c(C)cc(C(=O)COC(=O)c2oc3ccccc3c2C)c1C (centres undefined),"inconclusive [inhibitor, partial curve]",–
O=C(Nn1cnnc1)c1ccc(OC(F)(F)C(F)C(F)(F)F)cc1 (centres undefined),inactive,–
C/C(=N\NC(=O)c1ccc(Cn2cc(Br)cn2)o1)c1cccc(NC(=O)C(C)(C)C)c1,"inconclusive [inhibitor, single point]",–
Cc1ccc(C(=O)Nc2c(C)cc(C)c3cccnc23)cc1,active: 16.4 µM,–

Compound,Potency,"activity change, negative = growth inhibition"
COc1ccccc1NC(=O)C1CCCN(c2cc(C)nc3ncnn23)C1 (centres undefined),"inconclusive [inhibitor, single point]",–
CCn1cc(C(=O)NCc2ccccc2OC)c(=O)c2cc(S(=O)(=O)N3CCCCCC3)ccc21,"inconclusive [inhibitor, single point]",–
CC(NC(=O)c1ccc(Br)o1)C1CC2CCC1C2 (centres undefined),inactive,–
CN(C)c1cc[n+](CC(=O)c2ccc(Br)cc2)cc1,"inconclusive [inhibitor, single point]",–
COC(=O)c1c(O)c2c([nH]c1=O)CCCC2,inactive,–
O=C(CO/N=C/c1ccccc1Cl)N1CCCc2ccccc21,"inconclusive [inhibitor, single point]",–
CC1CCC(NC(=O)c2cccc(S(=O)(=O)N3CCOCC3)c2)CC1 (centres undefined),"inconclusive [inhibitor, partial curve]",–
CC(C)(C)n1nnnc1C(c1cc2ccccc2o1)N(Cc1ccccc1)Cc1ccccc1 (centres undefined),"inconclusive [inhibitor, single point]",–
COCC(=O)N1CCc2ccc(NC(=O)c3ccccc3Cl)cc2C1,inactive,–
CN(c1ccccc1)S(=O)(=O)c1ccc(C(=O)Nc2ncccc2O)cc1,"inconclusive [inhibitor, single point]",–
COC(=O)c1ccc2nc(-c3cccc(Br)c3)c(Cc3ccccc3)n2c1,active: 23.1 µM,–
O=C(Nc1cccc(Cl)c1)c1ccc(NCCCN2CCOCC2)c([N+](=O)[O-])c1,active: 29.1 µM,–
CCOC(=O)Cc1csc(NC(=O)CSc2ccc(Br)cc2)n1,active: 16.4 µM,–
O=C(CSc1nccn1-c1cccc(Cl)c1)NO,inactive,–
CNc1nc(SC(C)C(=O)Nc2ccc(Cl)c(Cl)c2)nc(N2CCOCC2)n1 (centres undefined),inactive,–
C#CCNC(=O)C[C@@H]1C[C@@]2(C(=O)OCC)CCC=C2N(Cc2ccc3c(c2)OCO3)C1=O,"inconclusive [inhibitor, partial curve, poor fit]",–
COc1ccc(NC(=O)CN(C)C(=O)CCCc2nc3ccccc3c(=O)[nH]2)cc1,inactive,–
O=C(O)c1ccc(N2C(=O)/C(=C\c3ccccc3)N=C2c2ccccc2)cc1,inactive,–
COCCNCc1ccc(Cl)cc1Cl,inactive,–
CCOC(=O)N1CCN(C(=O)c2ccc(-c3ccccc3OC)nc2N2CCC(N3CCCC(CO)C3)CC2)CC1 (centres undefined),inactive,–
Cc1cc(C)nc(NC(N)=NC2CCCCC2)n1,active: 11.6 µM,–
CN(C)c1ccc(/C=C/c2ccnc3ccc(N)cc23)cc1,"inconclusive [inhibitor, single point]",–
O=C(CN1CCC(n2nnc3cc(C(F)(F)F)ccc32)CC1)NCc1cccs1,"inconclusive [inhibitor, single point]",–
Cc1ccc(CNC(=O)c2cccc3c2C(=O)c2ccc(N4CCOCC4)cc2S3(=O)=O)cc1,"inconclusive [inhibitor, single point]",–
